# This is one part of the list.
# T1: UNK ZnF1-3 (human, UniProt Q9C0B0 31-174)
# T1 sequence: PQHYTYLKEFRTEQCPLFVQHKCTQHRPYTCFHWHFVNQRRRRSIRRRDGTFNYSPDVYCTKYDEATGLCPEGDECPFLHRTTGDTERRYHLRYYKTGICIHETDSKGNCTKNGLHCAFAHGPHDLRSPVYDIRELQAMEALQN
# B1: chr1:163117127:163117128:-_ENSG00000143248_ENST00000313961|hu_mus|hu_hu_hu_mus_False|18_88 (ssRNA)
# RNA: GGGAGUUCUACAGUCCGACGAUCUGCUACAAAGGAUGUAACUCAACACUCACAGGAACUUUUGGAAGCCUGACCAGAUGACUACUUGAUUAGCUCCUUAUAAAAUUCAGAGCGCACAAAGCGAGGCAGAGAAUCCUUCUCCAUCAACAGAGGAUUGAGCAUCA
# B2: chr6:160170297:160170298:+_ENSG00000146457_ENST00000337387|hu_mus|FALSE|FALSE (ssRNA)
# RNA: GGGAGUUCUACAGUCCGACGAUCUCACACCAACGACAAUGCUGUUUAACAUGUGCCUGCUGAAUGAGAUGAGGGUUUACUGAAUAAUGGGAGUCUCAUCACAGCCAAAUACCAUAUACAAUCUAGUUGUGAAAUGAAUGCUUACAACAGAGGAUUGAGCAUCA
# B3: chrX:77155053:77155054:+_ENSG00000131174_ENST00000481445|hu_hu|FALSE|FALSE (ssRNA)
# RNA: GGGAGUUCUACAGUCCGACGAUCCGAACUUGGAGACGAUUUAGUGCGCUUUUGACCAAGGGAAACAUCGUGAAGGUGAAGCUAGAACUGCGGCAAUACAGCUGCUGCUUUGGUGCCAAUUCGCUUCAGGUACCCUUGAAGUGACAACAGAGGAUUGAGCAUCA
# B4: chr2:47635579:47635580:+_ENSG00000095002_ENST00000543555|hu_mus|FALSE|FALSE (ssRNA)
# RNA: GGGAGUUCUACAGUCCGACGAUCAACUCGAUACUGGCGAACCAGAAGAAGAUCUUUCACGAAAGACUCAAAGUUCAUCUUGCUAAGCACAACACUCUGCAGGGUCUUACUCCCUGCCGGCCCCAUGUACUUGAUCACGCCCUGCAACAGAGGAUUGAGCAUCA
# B5: chr15:98568902:98568903:-_ENSMUSG00000051853_ENSMUST00000053183|mus_mus|FALSE|FALSE (ssRNA)
# RNA: GGGAGUUCUACAGUCCGACGAUCCCCAUUUAAAAUGGAACAGAAUCCCUGGCACCCCCAUGUAGAGAACACACACACACACUCACACACACACACACACACACACACACUCACACACACACACACACACACACACACACACAUCAACAGAGGAUUGAGCAUCA
# B6: 41988534_41988654_1386_CDS_ENSG00000174197_ENST00000570161|human|control|control (ssRNA)
# RNA: GGGAGUUCUACAGUCCGACGAUCCUUAACUGUGCUUCUGGUGACAGCACAGGGCUCCAGAUAGACUACUGGCAUCUUUCCAGUGUCUAAUUUGAACAUUUUAGCUUUAGCAACACCUGAUGGGCUGCUUGGAAGCCAUUUAGACAACAGAGGAUUGAGCAUCA
# B7: chr7:75932113:75932114:+_ENSG00000106211_ENST00000248553|hu_hu|hu_hu_hu_mus_False|1_8 (ssRNA)
# RNA: GGGAGUUCUACAGUCCGACGAUCCUGCGACCACUCAUCGGGCAACCGGGGCACCCCGAAAGCUUGAUCGAAGAGGCGGCUGUGUGCAGGGUACCAGUCCCGGAAUGGUUCCCAGCUCGGGCUCCGCAGCGAGAAGGGGACGCGCAACAGAGGAUUGAGCAUCA
# B8: chr15:63448706:63448707:-_ENSG00000185088_ENST00000411926|hu_mus|FALSE|FALSE (ssRNA)
# RNA: GGGAGUUCUACAGUCCGACGAUCAAUCUUGUAGCAACCUGGACAUUUCACAUCCAUGAAGUAAGAAUUUGGGCUCUGAACCAGCCGUUUCUUCUUAUGUUUUUUCUUCUCCUCCUCCAAGGAAGGGUGUAACAGAUCUCUAGCCAACAGAGGAUUGAGCAUCA
# B9: chr17:64801638:64801639:+_ENSG00000154229_ENST00000413366|hu_mus|hu_hu_hu_mus_False|18_88 (ssRNA)
# RNA: GGGAGUUCUACAGUCCGACGAUCUAUAUAUAUAUAUACAUAUGUACACAUAUGUAGUAAAACCCUAGUUAAACGUGUAAAGUAGCCAUUCAUUUUUAAAAUUACAUCUACAUUAAAAAAGUAAUCUAUCUGAUAGAGUGCCAGCAACAGAGGAUUGAGCAUCA
# B10: chr16:94690093:94690094:+_ENSMUSG00000040785_ENSMUST00000117648|mus_hu|mus_mus_mus_hu_True|38_58 (ssRNA)
# RNA: GGGAGUUCUACAGUCCGACGAUCGGGCUGGGAUGACGGACACACAGCCUCGAUUCCAGGGGGAAAAAGUCUUAGUCAAUACUAAUUAAAAAGUGUUUUUAUAAUUGGAAAAUCAGAUUACAUCUAUAAAAGAUGAAAAGCAAACAACAGAGGAUUGAGCAUCA
# B11: chr7:141438946:141438947:+_ENSG00000106028_ENST00000265304|hu_mus|hu_hu_hu_mus_True|88_98 (ssRNA)
# RNA: GGGAGUUCUACAGUCCGACGAUCGACGAAAUACCUGACAGGUCUUCGAAACAUGGCUGGCUUCUGUUUUUCUUACAACCUAAUCUUUAGGCUUUUCCUAAAGGAAAGAAAGAAAAGAGAAAAAUGAUAAAUCAAGAAACUACACAACAGAGGAUUGAGCAUCA
# B12: chr10:19624517:19624518:-_ENSMUSG00000020003_ENSMUST00000020182|mus_hu|motif|central (ssRNA)
# RNA: GGGAGUUCUACAGUCCGACGAUCUUCGUUGUUCUCACUCCAAGUCACAUCAAACAAACCAUCAUUCCAGUCAAAGCUUCGGAAAAGCCUUAGCCCAGCUUCAUCUGGAUCCAAUAUUAGUAGGGUUCCACAGCCCGCGAUGCCCAACAGAGGAUUGAGCAUCA
# B13: chr7:75932113:75932114:+_ENSG00000106211_ENST00000248553|hu_hu|hu_hu_hu_mus_False|78_108 (ssRNA)
# RNA: GGGAGUUCUACAGUCCGACGAUCCUGCGACCACUCCUCGGGCAACCGGGGCACCCCGAAGGCCUGGUCGAAGAGGCGGCUGUGUGCAGGGUACCAGUCCCGGAAUGGUUCCCAGCUCGGGCUCCGCAGCAGCGAGAAGGGCACCAACAGAGGAUUGAGCAUCA
# B14: chr11:93987321:93987322:+_ENSMUSG00000020859_ENSMUST00000103168|mus_mus|FALSE|FALSE (ssRNA)
# RNA: GGGAGUUCUACAGUCCGACGAUCUACAAAGUUACAUUCCGAACCCCAGGGAUUCCAUAAUAGAAAUAAAUACUGAAAUAACUACAUUGCUAAAUGAGCUUUUUACGCAUAGAAAUGAAGCCGUGGCCUCUAAAGACAGCAAAUCAACAGAGGAUUGAGCAUCA
# B15: chr14:70237991:70237992:+_ENSG00000100650_ENST00000557154|hu_hu|motif|central (ssRNA)
# RNA: GGGAGUUCUACAGUCCGACGAUCCCUGCUUCUUGACCGGCUGUAAGAUUUGCGACUACGGGAACGGGAUCGGCUACGAGACCGGGAGGAACUUCUGGUCCGGGAUCGAGACCUGCUUCUUGACCUACUGUGCCUUUUGCUGCCCAACAGAGGAUUGAGCAUCA
# B16: 32436424_32438851_567_CDS_ENSG00000101421_ENST00000217402|human|control|control (ssRNA)
# RNA: GGGAGUUCUACAGUCCGACGAUCCCCUACAGGUUUCGAAAUUGCUGUUGAAAUCUCCUCUGCAAGUUCUUGCUGGUCAGCAAUGUCCUGCAUUAACUCAUCAACUUUAUCGAUGUCCAUGUUGUCAUGGGCCGCCUUCAUGGCCAACAGAGGAUUGAGCAUCA
# B17: chr12:39763582:39763583:-_ENSG00000139116_ENST00000544797|hu_mus|hu_hu_hu_mus_False|18_18 (ssRNA)
# RNA: GGGAGUUCUACAGUCCGACGAUCCUCUAGGAACUGGGCAUUCACUUUGAAUUCAGGAGGGGGCAGCCCGUUUUUAAUCGCUGAGGUCUUUUUCUCAUCAAUACUCUUGAACAGGUGUUUAACAGCUCGAGAGAUGAUGCCCUGCAACAGAGGAUUGAGCAUCA
# B18: chr17:49039638:49039639:-_ENSG00000008294_ENST00000262013|hu_mus|FALSE|FALSE (ssRNA)
# RNA: GGGAGUUCUACAGUCCGACGAUCCAUUCCGAACCCCAGGGAUUCCAUAAUAGAAAUAAAUACUGAAAUAACUACAUUGCUAAAUGAGCUUUUUACGCAUAGAAAUGAAGCCGUGGCCUCUAAAGACAGCAAAUGGGACAAUUCCAACAGAGGAUUGAGCAUCA
# B19: chr1:163112212:163112213:-_ENSG00000143248_ENST00000313961|hu_hu|hu_hu_hu_mus_False|58_98 (ssRNA)
# RNA: GGGAGUUCUACAGUCCGACGAUCUUUUAUUAUCAGUAAGCAUGAGUUACAUACUAGGCAAAGUAUUGGAUACAAUAUUCUAAAGAUAAACACUAUUGGUCCAGAAUUUAAAACUUUAUGAGCGAAGUGCUGGCACAGGACUUACAACAGAGGAUUGAGCAUCA
# B20: chr1:169356373:169356374:+_ENSG00000117475_ENST00000367808|hu_mus|FALSE|FALSE (ssRNA)
# RNA: GGGAGUUCUACAGUCCGACGAUCAGCAAUGAGCUCCCCCUGGCAGUGAUUGCAGCAAUUGAAAGUUAUAUUUUCAUAUCUGGUAUAGGGAUGGAAACGUCCAAUAUUUUUCUUUGUAGUGAGUAAUGUGGUUGGUGAAGAUUCCAACAGAGGAUUGAGCAUCA
# B21: chr2:217001886:217001887:+_ENSG00000079246_ENST00000392132|hu_hu|motif|central (ssRNA)
# RNA: GGGAGUUCUACAGUCCGACGAUCAUGAGGAAAAGCCACGCCGACUUGAGGAUUAGCUCUUUUGUCAUAAGCAUAUCGAACGGUGGCCACCAUGUCUAAGUCAUCCAAAGCAUGAAUCAGGGAGGAAAGUGCAACUGCAGCUGCCAACAGAGGAUUGAGCAUCA
# B22: chr12:125510211:125510212:+_ENSG00000184992_ENST00000341446|hu_hu|FALSE|FALSE (ssRNA)
# RNA: GGGAGUUCUACAGUCCGACGAUCUUACUGUACAACUAAAUAUGGUUAUAUCCUUUGUUUAAAAAAUAUUUUUUCCCCCACUAAUUACACUUCGUGUGUAGUUCCACGUCAAUGAUCUUUCCGCUCUUCUGGGAAUGUGUCCUACAACAGAGGAUUGAGCAUCA
# Target: T1, UNK ZnF1-3
# Assay: nsRBNS (natural sequence RNA bind-n-seq); RBNS binding buffer (assumed for nsRBNS): 25 mM Tris pH 7.5, 150 mM KCl, 3 mM MgCl2, 0.01% Triton X-100, 500 ug/ml BSA, 20 U/ml SUPERase-In, 4 C; UNK is unkempt and MSI1 is Musashi-1; names of the RNAs are library labels; protein concentration not given here; high values mean tight binding
row,Binder,binding signal [enrichment R]
1,B1,1.15
2,B2,1.05
3,B3,0.752
4,B4,0.922
5,B5,1.64
6,B6,0.468
7,B7,0.857
8,B8,0.676
9,B9,1.61
10,B10,2.32
11,B11,0.913
12,B12,0.887
13,B13,0.702
14,B14,1.35
15,B15,1.19
16,B16,0.565
17,B17,1.53
18,B18,1.24
19,B19,1.42
20,B20,2.61
21,B21,1.63
22,B22,0.754

# — paper PMC12136788
